The list shows a part of the results.
Experiments:
Experiment in all cases: glycan array binding signal (z-score within array); higher = stronger binding
Details in all cases: glycan notation: IUPAC condensed, linker removed
GlcNAc(b1-6)GalNAc = biological target: GlcNAc(b1-6)GalNAc
How it was run: (§1)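 Glycan array binding is given as a within-array Z-score, which can be read as non-binding when negative. The arrays, 3228 of them, came from the Consortium for Functional Glycomics database and were retained only where the protein sequence was available. Z-scores were averaged across arrays of the same protein sequence at different concentrations or buffers and across linkers.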

[1] = biological target: GlcNAc6S(b1-3)Gal(b1-4)GlcNAc
How it was run: as §1

Kdn(a2-3)Gal(b1-3)GalNAc = biological target: Kdn(a2-3)Gal(b1-3)GalNAc
How it was run: as §1

Kdn(a2-3)Gal(b1-3)GlcNAc = biological target: Kdn(a2-3)Gal(b1-3)GlcNAc
How it was run: as §1

Kdn(a2-3)Gal(b1-4)Glc = biological target: Kdn(a2-3)Gal(b1-4)Glc
How it was run: as §1

Kdn(a2-3)Gal(b1-4)GlcNAc = biological target: Kdn(a2-3)Gal(b1-4)GlcNAc
How it was run: as §1

[2] = biological target: Kdn(a2-3)Gal(b1-4)[Fuc(a1-3)]GlcNAc
How it was run: as §1

Kdn(a2-6)Gal(b1-4)GlcNAc = biological target: Kdn(a2-6)Gal(b1-4)GlcNAc
How it was run: as §1

[3] = biological target: Man(a1-2)Man(a1-2)Man(a1-3)Man
How it was run: as §1

[4] = biological target: Man(a1-2)Man(a1-2)Man(a1-6)[Man(a1-3)]Man
How it was run: as §1

Man(a1-2)Man(a1-3)Man = biological target: Man(a1-2)Man(a1-3)Man
How it was run: as §1

[5] = biological target: Man(a1-2)Man(a1-3)[Man(a1-2)Man(a1-6)]Man
How it was run: as §1

[6] = biological target: Man(a1-2)Man(a1-3)[Man(a1-2)Man(a1-6)]Man(a1-6)[Man(a1-2)Man(a1-2)Man(a1-3)]Man
How it was run: as §1

[7] = biological target: Man(a1-2)Man(a1-3)[Man(a1-2)Man(a1-6)]Man(a1-6)[Man(a1-2)Man(a1-2)Man(a1-3)]Man(b1-4)GlcNAc(b1-4)GlcNAc
How it was run: as §1

[8] = biological target: Man(a1-2)Man(a1-3)[Man(a1-2)Man(a1-6)]Man(a1-6)[Man(a1-3)[Man(a1-6)]Man(a1-6)]Man(b1-4)GlcNAc(b1-4)GlcNAc
How it was run: as §1

[9] = biological target: Man(a1-2)Man(a1-3)[Man(a1-6)]Man(a1-6)[Man(a1-2)Man(a1-3)]Man(b1-4)GlcNAc(b1-4)GlcNAc
How it was run: as §1

[10] = biological target: Man(a1-2)Man(a1-6)[Man(a1-3)]Man(a1-6)[Man(a1-2)Man(a1-2)Man(a1-3)]Man
How it was run: as §1

[11] = biological target: Man(a1-2)Man(a1-6)[Man(a1-3)]Man(a1-6)[Man(a1-2)Man(a1-2)Man(a1-3)]Man(b1-4)GlcNAc(b1-4)GlcNAc
How it was run: as §1

Man(a1-3)[Man(a1-6)]Man = biological target: Man(a1-3)[Man(a1-6)]Man
How it was run: as §1

[12] = biological target: Man(a1-3)[Man(a1-6)]Man(a1-6)[Man(a1-2)Man(a1-3)]Man(b1-4)GlcNAc(b1-4)GlcNAc
How it was run: as §1

[13] = biological target: Man(a1-3)[Man(a1-6)]Man(a1-6)[Man(a1-3)]Man
How it was run: as §1

[14] = biological target: Man(a1-3)[Man(a1-6)]Man(a1-6)[Man(a1-3)]Man(b1-4)GlcNAc(b1-4)GlcNAc
How it was run: as §1

[15] = biological target: Man(a1-3)[Man(a1-6)]Man(b1-4)GlcNAc(b1-4)GlcNAc
How it was run: as §1

[16] = biological target: Man(a1-3)[Man(a1-6)]Man(b1-4)GlcNAc(b1-4)[Fuc(a1-6)]GlcNAc
How it was run: as §1

Man(a1-6)Man = biological target: Man(a1-6)Man
How it was run: as §1

Man(b1-4)GlcNAc = biological target: Man(b1-4)GlcNAc
How it was run: as §1

MurNAc(b1-4)GlcNAc = biological target: MurNAc(b1-4)GlcNAc
How it was run: as §1

Neu5Ac(a2-3)Gal = biological target: Neu5Ac(a2-3)Gal
How it was run: as §1

[17] = biological target: Neu5Ac(a2-3)Gal(b1-3)GalNAc
How it was run: as §1

[18] = biological target: Neu5Ac(a2-3)Gal(b1-3)GalNAc(b1-3)Gal(a1-4)Gal(b1-4)Glc
How it was run: as §1

[19] = biological target: Neu5Ac(a2-3)Gal(b1-3)GalNAc(b1-4)[Neu5Ac(a2-3)]Gal(b1-4)Glc
How it was run: as §1

[20] = biological target: Neu5Ac(a2-3)Gal(b1-3)GalNAc(b1-4)[Neu5Ac(a2-8)Neu5Ac(a2-3)]Gal(b1-4)Glc
How it was run: as §1

[21] = biological target: Neu5Ac(a2-3)Gal(b1-3)GalNAc6S
How it was run: as §1

[22] = biological target: Neu5Ac(a2-3)Gal(b1-3)GlcNAc
How it was run: as §1

[23] = biological target: Neu5Ac(a2-3)Gal(b1-3)GlcNAc(b1-2)Man
How it was run: as §1

[24] = biological target: Neu5Ac(a2-3)Gal(b1-3)GlcNAc(b1-2)Man(a1-3)[GlcNAc(b1-4)][Neu5Ac(a2-3)Gal(b1-3)GlcNAc(b1-2)Man(a1-6)]Man(b1-4)GlcNAc(b1-4)GlcNAc
How it was run: as §1

[25] = biological target: Neu5Ac(a2-3)Gal(b1-3)GlcNAc(b1-2)Man(a1-3)[Neu5Ac(a2-3)Gal(b1-3)GlcNAc(b1-2)Man(a1-6)]Man(b1-4)GlcNAc(b1-4)GlcNAc
How it was run: as §1

[26] = biological target: Neu5Ac(a2-3)Gal(b1-3)GlcNAc(b1-3)Gal(b1-3)GlcNAc
How it was run: as §1

B1: UDA (Urtica dioica), P11218 (protein)
chain: MMMRFLSAVVIMSSAMAVGLVSAQRCGSQGGGGTCPALWCCSIWGWCGDSEPYCGRTCENKCWSGERSDHRCGAAVGNPPCGQDRCCSVHGWCGGGNDYCSGSKCQYRCSSSVRGPRVALSGNSTANSIGNVVVTEPLFDQMFSHRKDCPSQGFYSYHSFLVAAESFPAFGTIGDVATRKREVAAFLAHISQATSGERSDVENPHAWGLCHINTTTVTENDFCTSSDWPCAAGKKYSPRGPIQLTHNFNYGLAGQAIGEDLIQNPDLVEKDPIISFKTALWFWMSQHDNKPSCHDIVLNANSAANRIPNKGVIGNIISRAFGHDDFAVRSSSIGFYKRYCDMLGVSYGHDLKYWFDNTPSSEFQRIQMRVAA
glycan array binding signal (z-score) (GlcNAc(b1-6)GalNAc): -0.18 | glycan array binding signal (z-score) [1]: 0.041 | glycan array binding signal (z-score) (Kdn(a2-3)Gal(b1-3)GalNAc): -0.163 | glycan array binding signal (z-score) (Kdn(a2-3)Gal(b1-3)GlcNAc): -0.19 | glycan array binding signal (z-score) (Kdn(a2-3)Gal(b1-4)Glc): -0.168 | glycan array binding signal (z-score) (Kdn(a2-3)Gal(b1-4)GlcNAc): -0.023 | glycan array binding signal (z-score) [2]: -0.166 | glycan array binding signal (z-score) (Kdn(a2-6)Gal(b1-4)GlcNAc): -0.171 | glycan array binding signal (z-score) [3]: -0.185 | glycan array binding signal (z-score) [4]: -0.184 | glycan array binding signal (z-score) (Man(a1-2)Man(a1-3)Man): -0.182 | glycan array binding signal (z-score) [5]: -0.192 | glycan array binding signal (z-score) [6]: -0.175 | glycan array binding signal (z-score) [7]: 4.32 | glycan array binding signal (z-score) [8]: 4.79 | glycan array binding signal (z-score) [9]: 4.54 | glycan array binding signal (z-score) [10]: -0.169 | glycan array binding signal (z-score) [11]: 8.27 | glycan array binding signal (z-score) (Man(a1-3)[Man(a1-6)]Man): -0.217 | glycan array binding signal (z-score) [12]: 10.8 | glycan array binding signal (z-score) [13]: -0.167 | glycan array binding signal (z-score) [14]: 5.89 | glycan array binding signal (z-score) [15]: 6.43 | glycan array binding signal (z-score) [16]: 1.88 | glycan array binding signal (z-score) (Man(a1-6)Man): -0.164 | glycan array binding signal (z-score) (Man(b1-4)GlcNAc): -0.171 | glycan array binding signal (z-score) (MurNAc(b1-4)GlcNAc): -0.157 | glycan array binding signal (z-score) (Neu5Ac(a2-3)Gal): -0.191 | glycan array binding signal (z-score) [17]: -0.188 | glycan array binding signal (z-score) [18]: -0.171 | glycan array binding signal (z-score) [19]: -0.182 | glycan array binding signal (z-score) [20]: -0.175 | glycan array binding signal (z-score) [21]: -0.191 | glycan array binding signal (z-score) [22]: -0.164 | glycan array binding signal (z-score) [23]: -0.155 | glycan array binding signal (z-score) [24]: -0.176 | glycan array binding signal (z-score) [25]: -0.162 | glycan array binding signal (z-score) [26]: -0.178
